From a collection of fitness landscapes (doi:10.1016/j.celrep.2020.107928)
Over roughly 81,000 sequences, “one-hybrid fitness for binding parS DNA” has its median near -0.17; the highest 2% begin near 0.51. The list shows a part of the results.

B1: Caulobacter ParB omega fusion; a variant is named by its letters at X, in order, B8GW30 (parent)
chain: MESVVVGEPGMSEGRRGLGRGLSALLGEVDAAPAQAPGEQLGGSREAPIEILQRNPDQPRRTFREEDLEDLSNSIREKGVLQPILVRPSPDTAGEYQIVAGERAWRAAQRAGLKTVPIMVRELDDLAVLEIGIIENVQRADLNVLEEALSYKVLMEKFERTQENIAQTIGKSXSHVANXMRLLXLPDEVQSYLVSGELTAXHARAIAAAADPVALAKQIIEGGLSVRETEALARKAPNLSAGKSKGGRPPRVKDTDTQALESDLSSVLGLDVSIDHRGSTGTLTITYATLEQLDDLCNRLTRGI

Variants of: B1
Experiment: one-hybrid fitness for binding parS DNA (scaled: cognate 1, non-cognate 0); higher = stronger binding
Conditions: with parS DNA site
In short: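 Fitness here means the log change in variant-to-wild-type read ratio between plasmids sequenced before and after selection. That scale was set so cognate equals 1 and non-cognate equals 0. The selection was a bacterial one-hybrid screen of Caulobacter ParB libraries, four specificity codons randomised, in E. coli USO carrying a HIS3 reporter with the site 19 bp from the promoter, grown 48 hours at 37°C on M9-minus-histidine with 0.1 mM IPTG and 5 mM 3-AT.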

Row | Variant | one-hybrid fitness for binding parS DNA
1 | ELCS | ≤ 0.2
2 | KNMG | ≤ 0.2
3 | QKQV | ≤ 0.2
4 | IVNS | ≤ 0.2
5 | DVSN | ≤ 0.2
6 | TASN | ≤ 0.2
7 | WLNG | ≤ 0.2
8 | RPCF | ≤ 0.2
9 | WGLG | ≤ 0.2
10 | PHKY | ≤ 0.2
11 | QWAG | ≤ 0.2
12 | ESST | ≤ 0.2
13 | NSPP | ≤ 0.2
14 | TCQS | ≤ 0.2
15 | CYTY | ≤ 0.2
16 | NVMC | ≤ 0.2
17 | GQRG | ≤ 0.2
18 | VGNL | ≤ 0.2
19 | WLDE | ≤ 0.2
20 | PQKA | ≤ 0.2
21 | ASPV | ≤ 0.2
22 | LPWL | ≤ 0.2
23 | EAAL | ≤ 0.2
24 | ATHI | ≤ 0.2

Row | Variant | one-hybrid fitness for binding parS DNA
25 | CDLG | ≤ 0.2
26 | SRFF | ≤ 0.2
27 | QWPF | ≤ 0.2
28 | LKTN | ≤ 0.2
29 | RCSW | 0.263
30 | GDPL | ≤ 0.2
31 | YVHG | ≤ 0.2
32 | RPGL | ≤ 0.2
33 | CGCC | ≤ 0.2
34 | QPGQ | ≤ 0.2
35 | CLIG | ≤ 0.2
36 | VNRC | ≤ 0.2
37 | VSCR | ≤ 0.2
38 | DIYR | ≤ 0.2
39 | MCAR | ≤ 0.2
40 | SNGY | ≤ 0.2
41 | GNNV | ≤ 0.2
42 | PFVW | ≤ 0.2
43 | QYEG | ≤ 0.2
44 | RKTK | ≤ 0.2
45 | AAGL | ≤ 0.2
46 | MMKR | ≤ 0.2
47 | RWNN | 0.355
48 | DWSP | ≤ 0.2

Row | Variant | one-hybrid fitness for binding parS DNA
49 | EVQR | ≤ 0.2
50 | RESS | 0.306
51 | KGHV | ≤ 0.2
52 | PVGC | ≤ 0.2
53 | DAIC | ≤ 0.2
54 | PSTH | ≤ 0.2
55 | KSYR | ≤ 0.2
56 | HCKD | ≤ 0.2
57 | VSVG | ≤ 0.2
58 | VRPS | ≤ 0.2
59 | PAPQ | ≤ 0.2
60 | CCKA | ≤ 0.2
61 | HARM | ≤ 0.2
62 | SIVN | ≤ 0.2
63 | DENT | ≤ 0.2
64 | AFDC | ≤ 0.2
65 | AGPT | ≤ 0.2
66 | MYQW | ≤ 0.2
67 | RSMW | ≤ 0.2
68 | QTAH | ≤ 0.2
69 | FHCG | 0.206
70 | MVCC | ≤ 0.2
71 | VCKS | ≤ 0.2
72 | TCNV | ≤ 0.2

Row | Variant | one-hybrid fitness for binding parS DNA
73 | IWTS | ≤ 0.2
74 | VRAW | ≤ 0.2
75 | KRMH | ≤ 0.2
76 | GRKV | ≤ 0.2
77 | RAFF | 0.249
78 | ACRA | ≤ 0.2
79 | VSLC | ≤ 0.2
80 | LACS | ≤ 0.2
81 | PKAG | ≤ 0.2
82 | PMDG | ≤ 0.2
83 | EVTM | ≤ 0.2
84 | RVVY | 0.413
85 | DYKR | ≤ 0.2
86 | HTSM | ≤ 0.2
87 | HFSL | ≤ 0.2
88 | SMLC | ≤ 0.2
89 | YIYG | ≤ 0.2
90 | SATM | ≤ 0.2
91 | RYNH | ≤ 0.2
92 | EHSS | ≤ 0.2
93 | MPRR | ≤ 0.2
94 | TVIM | ≤ 0.2
95 | NATV | ≤ 0.2
96 | MCVM | ≤ 0.2

Row | Variant | one-hybrid fitness for binding parS DNA
97 | MPNT | ≤ 0.2
98 | YAMG | ≤ 0.2
99 | GQLG | ≤ 0.2
100 | KNCS | ≤ 0.2
101 | KAYW | ≤ 0.2
102 | RKKD | ≤ 0.2
103 | RWPG | 0.406
104 | SYHM | ≤ 0.2
105 | GEMK | ≤ 0.2
106 | PHYI | ≤ 0.2
107 | MSVP | ≤ 0.2
108 | WSME | ≤ 0.2
109 | WATT | ≤ 0.2
110 | SSCG | ≤ 0.2
111 | GMKR | ≤ 0.2
112 | RVKD | ≤ 0.2
113 | VDML | ≤ 0.2
114 | YLVC | ≤ 0.2
115 | PHTK | ≤ 0.2
116 | TPYR | ≤ 0.2
117 | RINF | 0.201
118 | TMPS | ≤ 0.2
119 | LYRG | ≤ 0.2
120 | RPTR | ≤ 0.2

Row | Variant | one-hybrid fitness for binding parS DNA
121 | NRFE | ≤ 0.2
122 | KVDG | ≤ 0.2
123 | PYAF | ≤ 0.2
124 | TDPN | ≤ 0.2
125 | KRCR | ≤ 0.2
126 | QKGT | ≤ 0.2
127 | AQMC | ≤ 0.2
128 | RAVT | 0.77
129 | YFVV | ≤ 0.2
130 | PTVF | ≤ 0.2
131 | ATLI | ≤ 0.2
132 | AQPR | ≤ 0.2
133 | VWAN | ≤ 0.2
134 | ARCH | ≤ 0.2
135 | GPKV | ≤ 0.2
136 | MLGL | ≤ 0.2
137 | VPLE | ≤ 0.2
138 | NFDM | ≤ 0.2
139 | IYIT | ≤ 0.2
140 | PRQG | ≤ 0.2
141 | MSEE | ≤ 0.2
142 | ASWG | ≤ 0.2
143 | IHTP | ≤ 0.2
144 | THQK | ≤ 0.2

Row | Variant | one-hybrid fitness for binding parS DNA
145 | LGYC | ≤ 0.2
146 | EYKT | ≤ 0.2
147 | PAPM | ≤ 0.2
148 | RHNT | 0.857
149 | NTVP | ≤ 0.2
150 | GPLL | ≤ 0.2
151 | VVPR | ≤ 0.2
152 | LVRK | ≤ 0.2
153 | DSVW | ≤ 0.2
154 | MQTS | ≤ 0.2
155 | PWIG | ≤ 0.2
156 | LKWG | ≤ 0.2
157 | QESS | ≤ 0.2
158 | PGYI | ≤ 0.2
159 | YANT | ≤ 0.2
160 | IILS | ≤ 0.2
161 | NPRT | ≤ 0.2
162 | AVLR | ≤ 0.2
163 | PAPN | ≤ 0.2
164 | DITM | ≤ 0.2
165 | SLTH | ≤ 0.2
166 | WMVG | ≤ 0.2
167 | YHKR | ≤ 0.2
168 | SEEG | ≤ 0.2

Row | Variant | one-hybrid fitness for binding parS DNA
169 | CTTI | ≤ 0.2
170 | SNDI | ≤ 0.2
171 | EIMC | ≤ 0.2
172 | QGPI | ≤ 0.2
173 | ANEK | ≤ 0.2
174 | NLMG | ≤ 0.2
175 | TVWH | ≤ 0.2
176 | ADDM | ≤ 0.2
177 | VTAL | ≤ 0.2
178 | QSTP | ≤ 0.2
179 | YAKV | ≤ 0.2
180 | KKVR | ≤ 0.2
181 | YRSY | ≤ 0.2
182 | APKQ | ≤ 0.2
183 | EYFF | ≤ 0.2
184 | RPYM | ≤ 0.2
185 | QTMH | ≤ 0.2
186 | AMSM | ≤ 0.2
187 | LGCS | ≤ 0.2
188 | PFVV | ≤ 0.2
189 | FALI | ≤ 0.2
190 | QIWA | ≤ 0.2
191 | RHCC | 0.869
192 | DRHK | ≤ 0.2

Row | Variant | one-hybrid fitness for binding parS DNA
193 | VVYT | ≤ 0.2
194 | VSSM | ≤ 0.2
195 | PGLF | ≤ 0.2
196 | KEPK | ≤ 0.2
197 | NGFT | ≤ 0.2
198 | SVLG | ≤ 0.2
199 | PMWM | ≤ 0.2
200 | GAVD | ≤ 0.2
201 | MKNR | ≤ 0.2
202 | EQLL | ≤ 0.2
203 | ETQL | ≤ 0.2
204 | SWEW | ≤ 0.2
205 | SFPP | ≤ 0.2
206 | AHDC | ≤ 0.2
207 | HWAA | ≤ 0.2
208 | TMRA | ≤ 0.2
209 | RDLI | ≤ 0.2
210 | VAVR | ≤ 0.2
211 | VTTM | ≤ 0.2
212 | SWCC | ≤ 0.2
213 | QRSY | ≤ 0.2
214 | CDKR | ≤ 0.2
215 | HRVF | ≤ 0.2
216 | QQRD | ≤ 0.2

Row | Variant | one-hybrid fitness for binding parS DNA
217 | PSTG | ≤ 0.2
218 | LSCI | ≤ 0.2
219 | TVDW | ≤ 0.2
220 | NHAR | ≤ 0.2
221 | CTDR | ≤ 0.2
222 | GKRL | ≤ 0.2
223 | MDKR | ≤ 0.2
224 | QLVG | ≤ 0.2
225 | IFKD | ≤ 0.2
226 | LLVI | ≤ 0.2
227 | WSFT | ≤ 0.2
228 | LPAI | ≤ 0.2
229 | ASSE | ≤ 0.2
230 | AGCS | ≤ 0.2
231 | ADCS | ≤ 0.2
232 | QVDI | ≤ 0.2
233 | ISDT | ≤ 0.2
234 | MVLC | ≤ 0.2
235 | DLIE | ≤ 0.2
236 | WHVT | ≤ 0.2
237 | AAAD | ≤ 0.2
238 | LEPP | ≤ 0.2
239 | YAKG | ≤ 0.2
240 | HKFG | ≤ 0.2

Row | Variant | one-hybrid fitness for binding parS DNA
241 | DTIT | ≤ 0.2
242 | TVNL | ≤ 0.2
243 | TVPF | ≤ 0.2
244 | WELE | ≤ 0.2
245 | KCMY | ≤ 0.2
246 | DSYL | ≤ 0.2
247 | VLRH | ≤ 0.2
248 | AAPI | ≤ 0.2
249 | AEWT | ≤ 0.2
250 | KEHS | ≤ 0.2
251 | RDEI | ≤ 0.2
252 | ASQI | ≤ 0.2
253 | GFRT | ≤ 0.2
254 | DWVR | ≤ 0.2
255 | INMD | ≤ 0.2
256 | DRHR | ≤ 0.2
257 | HFLC | ≤ 0.2
258 | TDVM | ≤ 0.2
259 | PYHI | ≤ 0.2
260 | IQFV | ≤ 0.2
261 | YWDR | ≤ 0.2
262 | PRNP | ≤ 0.2
263 | EVYG | ≤ 0.2
264 | KTIG | ≤ 0.2

Row | Variant | one-hybrid fitness for binding parS DNA
265 | CGQH | ≤ 0.2
266 | GLRN | ≤ 0.2
267 | QHKV | ≤ 0.2
268 | SGDI | ≤ 0.2
269 | LCNE | ≤ 0.2
270 | DNRK | ≤ 0.2
271 | PPYC | ≤ 0.2
272 | YRKS | 0.353
273 | PFDG | ≤ 0.2
274 | VVTW | ≤ 0.2
275 | CFRY | ≤ 0.2
276 | RQTF | 0.211
277 | MRLW | ≤ 0.2
278 | IRVT | ≤ 0.2
279 | SYLL | ≤ 0.2
280 | VAPW | ≤ 0.2
281 | PLME | ≤ 0.2
282 | QCCL | ≤ 0.2
283 | LCYK | ≤ 0.2
284 | FDAF | ≤ 0.2
285 | RPGC | ≤ 0.2
286 | SAVK | ≤ 0.2
287 | TLQD | ≤ 0.2
288 | RWFT | 0.497

Row | Variant | one-hybrid fitness for binding parS DNA
289 | SGES | ≤ 0.2
290 | HPTS | ≤ 0.2
291 | RYCV | ≤ 0.2
292 | ANII | ≤ 0.2
293 | IEIF | ≤ 0.2
294 | TKPF | ≤ 0.2
295 | QRYK | ≤ 0.2
296 | YTMR | ≤ 0.2
297 | NKQN | ≤ 0.2
298 | QRKN | ≤ 0.2
299 | CPPQ | ≤ 0.2
300 | FKAS | ≤ 0.2
301 | ASMD | ≤ 0.2
302 | IRWG | ≤ 0.2
303 | RHVH | ≤ 0.2
304 | RVQR | ≤ 0.2
305 | QYYV | ≤ 0.2
306 | GAES | ≤ 0.2
